From paper PMC4259407, “HAX1 regulates E3 ubiquitin ligase activity of cIAPs by promoting their dimerization” (Oncotarget, 2014)
These are yes or no findings as the source states them, for the method shown. In cells and extracts the contact can be indirect. Some binding calls cover weakened binding; strength is not graded here. Values belong to the substance of their own block, whether it stands above or below them.

Protein sequences, listed by entry. Tags and fused reporters are not part of them. Lines headed by an entry give the natural chain unless they say otherwise; changes in a name come on top. Residues count along the entry.
UniProt Q13489: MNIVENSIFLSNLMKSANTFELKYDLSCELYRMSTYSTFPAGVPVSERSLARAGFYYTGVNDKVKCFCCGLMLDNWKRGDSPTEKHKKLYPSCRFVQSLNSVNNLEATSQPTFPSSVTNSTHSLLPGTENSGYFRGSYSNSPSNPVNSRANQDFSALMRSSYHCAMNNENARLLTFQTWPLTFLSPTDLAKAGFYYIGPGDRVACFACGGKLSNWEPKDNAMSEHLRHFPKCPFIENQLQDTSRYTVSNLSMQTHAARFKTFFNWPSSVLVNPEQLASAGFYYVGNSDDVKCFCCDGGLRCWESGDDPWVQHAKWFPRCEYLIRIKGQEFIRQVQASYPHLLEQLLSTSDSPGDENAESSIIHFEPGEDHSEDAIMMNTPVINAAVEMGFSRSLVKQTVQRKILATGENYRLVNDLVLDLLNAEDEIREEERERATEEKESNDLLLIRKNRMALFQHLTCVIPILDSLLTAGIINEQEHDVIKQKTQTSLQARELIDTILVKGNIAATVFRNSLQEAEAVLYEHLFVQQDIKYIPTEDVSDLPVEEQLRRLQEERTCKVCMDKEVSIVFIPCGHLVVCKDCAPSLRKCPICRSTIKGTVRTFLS
CARD domain of cIAP2 (Supplementary Figure S1B): residues 439-529 of Q13489
UniProt Q13490: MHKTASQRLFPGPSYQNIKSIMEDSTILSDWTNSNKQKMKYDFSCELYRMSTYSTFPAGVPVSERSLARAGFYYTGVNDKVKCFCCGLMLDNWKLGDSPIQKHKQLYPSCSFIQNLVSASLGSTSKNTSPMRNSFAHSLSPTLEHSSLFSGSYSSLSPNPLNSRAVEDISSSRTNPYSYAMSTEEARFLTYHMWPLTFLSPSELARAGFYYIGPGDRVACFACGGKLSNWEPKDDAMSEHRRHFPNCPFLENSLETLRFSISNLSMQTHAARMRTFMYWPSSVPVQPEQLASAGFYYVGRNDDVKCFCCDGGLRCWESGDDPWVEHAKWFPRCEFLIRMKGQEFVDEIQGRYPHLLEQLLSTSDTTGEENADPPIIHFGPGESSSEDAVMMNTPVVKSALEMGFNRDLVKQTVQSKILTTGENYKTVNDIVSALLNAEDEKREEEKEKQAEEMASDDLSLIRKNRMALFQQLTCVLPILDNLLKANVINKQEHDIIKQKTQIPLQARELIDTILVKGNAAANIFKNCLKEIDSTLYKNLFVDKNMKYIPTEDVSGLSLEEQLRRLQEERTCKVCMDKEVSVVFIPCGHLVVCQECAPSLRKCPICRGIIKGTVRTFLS
UniProt O00165: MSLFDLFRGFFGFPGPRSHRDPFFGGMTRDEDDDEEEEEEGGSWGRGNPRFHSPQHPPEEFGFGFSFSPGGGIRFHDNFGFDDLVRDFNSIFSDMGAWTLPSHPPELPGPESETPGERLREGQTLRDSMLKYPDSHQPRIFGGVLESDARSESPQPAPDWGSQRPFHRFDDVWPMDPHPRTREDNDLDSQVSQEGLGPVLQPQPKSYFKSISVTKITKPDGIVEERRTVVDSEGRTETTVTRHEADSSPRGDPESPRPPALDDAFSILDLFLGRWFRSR

Assays:
FLAG-cIAP2 = FLAG-cIAP2 (UniProt Q13489); assay: co-IP; FLAG-cIAP2 expressed in HEK293T cells (alone or with GFP-HAX1 deletion mutants), precipitated with anti-FLAG M2 agarose at 4°C; lysis buffer 20 mM Tris-HCl pH 7.5, 150 mM NaCl, 1% igepal, 10% glycerol; blots with anti-HAX1 or anti-GFP and anti-FLAG
[1] = target: HA-cIAP2 and Myc-cIAP2 (two differently tagged copies of cIAP2) (UniProt Q13489); assay: co-IP; in vivo dimerization assay: HEK 293T cells co-transfected with HA-cIAP2, Myc-cIAP2 and FLAG-HAX1 (0, 0.8 and 2 μg), MG132 (10 μM) for 7 h; precipitated with anti-HA agarose, 4 h at 4°C; more dimer with HAX1
[2] = target: CARD domain of cIAP2 (Supplementary Figure S1B) (UniProt Q13489); assay: co-IP; co-immunoprecipitation in HEK293T cells with the CARD domain of cIAP2 (Supplementary Figure S1B); antibodies and tags not told
[3] = target: endogenous cIAP2 (proximity ligation assay) (UniProt Q13489); assay: proximity ligation; endogenous proteins in cells (Supplementary Figure S2); cell line not stated
[4] = target: endogenous cIAP1 (proximity ligation assay) (UniProt Q13490); assay: as above
[5] = target: endogenous HAX1 (MDA-MB-231 cells) (human (endogenous in MDA-MB-231)) (UniProt O00165); assay: co-IP; MDA-MB-231 lysates incubated with IgG or anti-HAX1 antibody; blots with anti-cIAP2 and anti-HAX1; endogenous proteins
HA-cIAP1 = HA-cIAP1 (UniProt Q13490); assay: co-IP; HA-cIAP1 and exogenous HAX1 expressed in HEK293T cells; HA-cIAP1 immunoprecipitated, immunoblot (Supplementary Figure S1A)

binding [1]: binds
Substance: HA-cIAP2 and Myc-cIAP2 (two differently tagged copies of cIAP2) (from UniProt Q13489 1-604)

binding [3]: binds
binding [4]: binds
Substance: endogenous HAX1 (proximity ligation assay) (from UniProt O00165 1-279)

binding [5]: binds
Substance: endogenous cIAP2 (MDA-MB-231 cells) (from UniProt Q13489 1-604)

binding (HA-cIAP1): binds
Substance: exogenous HAX1 (co-expressed with HA-cIAP1) (from UniProt O00165 1-279)

More lines, now with the values behind:

Substance: GFP-HAX1 C-terminal domain (a.a 128–279) (from UniProt O00165 128-279) (domain or fragment)
binding (FLAG-cIAP2): binds

Substance: GFP-HAX1N, N-terminal domain (a.a 1–127) (from UniProt O00165 1-127) (domain or fragment)
binding (FLAG-cIAP2): no binding

Substance: HAX1 (co-immunoprecipitation of Supplementary Figure S1B) (from UniProt O00165 1-279)
binding [2]: binds

Substance: endogenous HAX1 (HEK293T cells) (from UniProt O00165 1-279)
binding (FLAG-cIAP2): binds
